# Assay results from a collection of fitness landscapes (doi:10.1126/science.1257360).
# Some of the results follow.
# B1: PhoQ; a variant is named by its letters at X, in order, P23837 (parent)
# chain: MKKLLRLFFPLSLRVRFLLATAAVVLVLSLAYGMVALIGYSVSFDKTTFRLLRGESNLFYTLAKWENNKLHVELPENIDKQSPTMTLIYDENGQLLWAQRDVPWLMKMIQPDWLKSNGFHEIEADVNDTSLLLSGDHSIQQQLQEVREDDDDAEMTHSVAVNVYPATSRMPKLTIVVVDTIPVELKSSYMVWSWFIYVLSANLLLVIPLLWVAAWWSLRPIEALAKEVRELEEHNRELLNPATTRELTSLVRNLNRLLKSERERYDKYRTTLTDLTHSLKTPLXXLQXXLRSLRSEKMSVSDAEPVMLEQISRISQQIGYYLHRASMRGGTLLSRELHPVAPLLDNLTSALNKVYQRKGVNISLDISPEISFVGEQNDFVEVMGNVLDNACKYCLEFVEISARQTDEHLYIVVEDDGPGIPLSKREVIFDRGQRVDTLRPGQGVGLAVAREITEQYEGKIVAGESMLGGARMEVIFGRQHSAPKDE
# Variants of: B1
# Test: enrichment ratio after two sorts for PhoP signalling (ratio (wild type AVST 3.29)); higher = more functional
# Details: with PhoP (E. coli)
row,Variant,enrichment ratio
1,VHTT,≤ 0.25
2,MAIG,9.17
3,RRIS,≤ 0.25
4,GRTH,≤ 0.25
5,PDET,≤ 0.25
6,GIMC,17.3
7,EHPG,≤ 0.25
8,VRHD,≤ 0.25
9,IVSK,≤ 0.25
10,FDYW,≤ 0.25
11,RVRW,≤ 0.25
12,TKGT,≤ 0.25
13,KHHM,≤ 0.25
14,KFIT,≤ 0.25
15,GHVI,≤ 0.25
16,SGRK,≤ 0.25
17,ARIC,≤ 0.25
18,WDTT,≤ 0.25
19,IWMS,≤ 0.25
20,QMYS,≤ 0.25
21,MSAL,9.18
22,KIPD,≤ 0.25
23,RNYA,≤ 0.25
24,NLGC,≤ 0.25
25,MRFH,≤ 0.25

row,Variant,enrichment ratio
1,MISK,≤ 0.25
2,SNSS,10.8
3,VEPM,≤ 0.25
4,ASLH,11.2
5,NQHR,≤ 0.25
6,HMQH,≤ 0.25
7,KLKW,≤ 0.25
8,PRPN,≤ 0.25
9,HGKN,≤ 0.25
10,DGAE,≤ 0.25
11,LTCW,≤ 0.25
12,NEFR,≤ 0.25
13,MLSM,10.3
14,DRGC,≤ 0.25
15,RAPC,≤ 0.25
16,SDDW,≤ 0.25
17,KGYG,≤ 0.25
18,MNLR,≤ 0.25
19,RRDG,≤ 0.25
20,RFQR,≤ 0.25
21,YCIM,≤ 0.25
22,QSRY,≤ 0.25
23,DLMQ,≤ 0.25
24,NRKN,≤ 0.25
25,TKFF,1.54

row,Variant,enrichment ratio
1,HFMS,≤ 0.25
2,RVCL,≤ 0.25
3,ARRG,≤ 0.25
4,HEDS,≤ 0.25
5,VSRG,≤ 0.25
6,DLYV,≤ 0.25
7,AHFQ,≤ 0.25
8,YTFC,≤ 0.25
9,HIYF,≤ 0.25
10,ERFI,≤ 0.25
11,GTVM,36.9
12,PEDT,≤ 0.25
13,NQLY,≤ 0.25
14,HFLD,≤ 0.25
15,NLGH,≤ 0.25
16,FQAM,≤ 0.25
17,WQWY,≤ 0.25
18,DHIL,≤ 0.25
19,AKDY,≤ 0.25
20,RQSL,≤ 0.25
21,PQLQ,≤ 0.25
22,DSAT,≤ 0.25
23,LQIH,≤ 0.25
24,GNAI,7.21
25,HPHQ,≤ 0.25

row,Variant,enrichment ratio
1,AFDE,≤ 0.25
2,SDQE,≤ 0.25
3,TTWQ,1.53
4,WKNP,≤ 0.25
5,VDVR,0.427
6,TDTQ,1.65
7,LLNI,≤ 0.25
8,TETQ,0.343
9,LEFP,≤ 0.25
10,ESHR,1.01
11,RHAK,≤ 0.25
12,VFNT,≤ 0.25
13,TGMA,26.1
14,FSQA,≤ 0.25
15,PMLY,≤ 0.25
16,IQDQ,≤ 0.25
17,PKMK,≤ 0.25
18,GRPR,≤ 0.25
19,NHRA,≤ 0.25
20,STET,≤ 0.25
21,KMWV,≤ 0.25
22,KYNR,≤ 0.25
23,NQGI,≤ 0.25
24,YVMD,≤ 0.25
25,GWQI,≤ 0.25

row,Variant,enrichment ratio
1,IDIQ,≤ 0.25
2,PPPQ,≤ 0.25
3,HNFC,≤ 0.25
4,PIHA,≤ 0.25
5,YCGT,≤ 0.25
6,HLAG,≤ 0.25
7,RNKL,≤ 0.25
8,GKWF,≤ 0.25
9,NHVW,≤ 0.25
10,SLDM,≤ 0.25
11,PWGN,≤ 0.25
12,SNCK,0.609
13,FINH,≤ 0.25
14,MHLH,≤ 0.25
15,YACH,3.26
16,FFVS,≤ 0.25
17,ESEE,≤ 0.25
18,YVFR,≤ 0.25
19,VSFC,≤ 0.25
20,TRVV,14.5
21,ADGL,≤ 0.25
22,WHDH,≤ 0.25
23,TNTQ,9.28
24,ADGP,≤ 0.25
25,FNGN,≤ 0.25

row,Variant,enrichment ratio
1,SNCH,7.35
2,VHIE,≤ 0.25
3,ILED,≤ 0.25
4,NKHT,≤ 0.25
5,IMQP,≤ 0.25
6,DYFE,≤ 0.25
7,DRTI,≤ 0.25
8,LYKP,≤ 0.25
9,PGFA,≤ 0.25
10,DAFY,≤ 0.25
11,DSYA,≤ 0.25
12,DIPA,≤ 0.25
13,FKMG,≤ 0.25
14,KVNQ,≤ 0.25
15,AHDW,≤ 0.25
16,FQKW,≤ 0.25
17,ARTG,≤ 0.25
18,NRDK,≤ 0.25
19,NDHV,≤ 0.25
20,LRIW,≤ 0.25
21,YVKF,≤ 0.25
22,SFQS,≤ 0.25
23,MFPT,≤ 0.25
24,IQHS,≤ 0.25
25,MHFN,≤ 0.25

row,Variant,enrichment ratio
1,MYSD,≤ 0.25
2,ALRR,≤ 0.25
3,IKKM,≤ 0.25
4,SVAY,8.16
5,NAQK,≤ 0.25
6,HKTQ,≤ 0.25
7,RKYM,≤ 0.25
8,VQYK,≤ 0.25
9,DIVK,≤ 0.25
10,EFGI,≤ 0.25
11,EIAH,≤ 0.25
12,PLGT,≤ 0.25
13,RADQ,≤ 0.25
14,NMYH,≤ 0.25
15,DDSV,≤ 0.25
16,MYRQ,≤ 0.25
17,AYQL,≤ 0.25
18,DGTT,≤ 0.25
19,IPTA,≤ 0.25
20,NAEF,≤ 0.25
21,DGKK,≤ 0.25
22,HITH,≤ 0.25
23,KYDM,≤ 0.25
24,HYEH,≤ 0.25
25,DWLF,≤ 0.25

row,Variant,enrichment ratio
1,NWTI,≤ 0.25
2,FNPH,≤ 0.25
3,WKAY,≤ 0.25
4,RSWI,≤ 0.25
5,FTVK,≤ 0.25
6,VVIS,≤ 0.25
7,EGRP,≤ 0.25
8,RMWM,≤ 0.25
9,VEIF,≤ 0.25
10,KLMV,≤ 0.25
11,LYFH,≤ 0.25
12,YLPV,≤ 0.25
13,FEQV,≤ 0.25
14,YERH,≤ 0.25
15,MPEY,≤ 0.25
16,RRAA,≤ 0.25
17,HTTP,≤ 0.25
18,NYTI,≤ 0.25
19,LGNS,≤ 0.25
20,EAMT,≤ 0.25
